# Test results taken from PubChem BioAssay AID588855 (National Center for Advancing Translational Sciences (NCATS), 2011).
# Values joined by “and” are separate entries in the source; they are usually repeats but may differ in a detail not shown here. Equal values may be shown once. The whole screen tested about 410,000 compounds, of which about 5,000 (1.2%) were called active. The shares of active, inactive and inconclusive entries below differ from those in the screen. Calls follow the shape of the dose curve; as a rule, active = well fitted inhibition curve with a large enough effect; inconclusive = small, poorly fitted or top-dose-only effect; inactive = no such curve, though single readings can be large or run the other way. A potency beside an inconclusive call is a rough fit, not a confirmed value.
# Experiment: qHTS for Inhibitors of TGF-b; also: nearly all actives have a fitted effect of over 65% in size
# Conditions: HepG2 CAGA-GFP TGF-b/SMAD3 reporter, GFP fluorescence, 18 h, TGF-beta stimulated, 500 pg/mL final; series mostly up to 46.1 µM; activity, negative = inhibition: at the top concentration
# Procedure, shortened: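 HEPG2 CAGA-GFP, 1000 cells/well; 2 h settle, 37 C; cpd via pin tool; TGF-b 500 pg/mL final; 18 h, 37 C; GFP imaging ex488/em500-530; %Activity normalised to -TGF-b and +DMSO controls; CRC fit, curve class.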
# % is scaled to controls: 0 for no effect and ±100 for the full control effect; potency is read from the fitted curve at half-maximal effect; tags tell the direction and shape of the fitted curve.
Compound,"activity, negative = inhibition",Potency
COc1ccccc1CNC(=O)C1CCCN(S(=O)(=O)c2cnc[nH]2)C1 (centres undefined),inactive: 3.07%,
COc1cccc(NC(=O)COC(=O)COc2cccc3c2OC(C)(C)C3)c1,inactive: -8.19%,
Cc1ccccc1SCC(=O)Nc1cc(C(F)(F)F)ccc1N1CCOCC1,,"inconclusive: 35.5 µM [inhibitor, single point]"
CC1C(=O)N(Cc2cn(CCC3OCCCO3)nn2)CCS(=O)(=O)N1Cc1ccc(-c2ccc(Cl)nc2)cc1 (centres undefined),inactive: 0.866%,
Cc1cccc(NC(=O)Nc2cccc(C#N)c2)n1,,"inconclusive: 14.1 µM [inhibitor, single point]"
CCCCc1nn2c(=O)cc(COC(=O)c3cccs3)nc2s1,inactive: -32%,
COc1cccc(/C=N/NC(=O)C(=O)N2CCCC2)c1OC,inactive: -1.94%,
COC(=O)C[C@H]1C[C@@H]2c3cc(NC(=O)NC4CCCC4)ccc3O[C@@H]2[C@@H](CO)O1,inactive: 10%,
Cc1cc(C)cc(C(O)c2ncc(-c3ccc(C(F)(F)F)cc3)[nH]2)c1 (centres undefined),,"inconclusive: 22.4 µM [inhibitor, single point]"
Cc1ccc(C(=O)OCC(=O)N2CCC(c3ccccc3)=N2)cc1,inactive: -1.09%,
CCN1CCN(Cc2ccc(NC(=O)c3ccc(C)c(NC(=O)N4CCNC4=O)c3)cc2C(F)(F)F)CC1,,"inconclusive: 35.5 µM [inhibitor, single point] and inconclusive: 12.6 µM [inhibitor, single point]"
CCc1ccccc1NC(=O)CCCSc1nc2ccccc2s1,,"inconclusive: 6.31 µM [inhibitor, full curve, poor fit]"
O=C(COC(=O)c1cc([N+](=O)[O-])ccc1N1CCOCC1)Nc1ccc(Cl)cn1,,"inconclusive: 12.6 µM [inhibitor, partial curve, poor fit]"
CC(=O)c1ccc(-c2cccc(-c3nc4ccccn4c3NC3CCCCC3)c2)cc1,,"inconclusive: 22.4 µM [inhibitor, partial curve, poor fit]"
CCCc1nc2ccc(C)cn2c1Cc1ccc(C)cc1,,"inconclusive: 15.8 µM [inhibitor, single point]"
COc1cc(OC)c2c(C)cc(=O)oc2c1C(CCN1CCOCC1)c1ccc2c(c1)OCO2 (centres undefined),,"inconclusive: 2.82 µM [inhibitor, single point]"
Cc1cc(C)nc(Nc2cccc(Cl)c2)n1,inactive: 6.87%,
CCOc1ccc(CCNC(=O)c2cc(Nc3ccc(C)cc3C)nc3ccccc23)cc1OCC,inactive: -0.293%,
COC(=O)c1ccc2nc(C3CCCCC3)c3c(c2c1)CCC3,,"inconclusive: 0.631 µM [inhibitor, partial curve, poor fit]"
CCP(=O)(CC)c1cccc(N)c1,,"inconclusive: 3.98 µM [inhibitor, partial curve, poor fit]"

Compound,"activity, negative = inhibition",Potency
Cn1nc(C(C)(C)C)cc1C(=O)N1CCCCC1c1cc(C(=O)Nc2cccc3c2CCCC3)no1 (centres undefined),,"inconclusive: 12.6 µM [inhibitor, single point]"
O=C(Nc1cccc(S(=O)(=O)NC2=NCCC2)c1)c1cnc(Cl)c(Cl)c1,inactive: -29.8%,
Cc1ccccc1Nc1nc(N)nc(CSc2nc3ccccc3c(=O)n2C)n1,,"inconclusive: 35.5 µM [inhibitor, partial curve, poor fit]"
CCc1nc2ccc(C(=O)NCCc3ccc(OC)cc3OC)cc2nc1CC,,"inconclusive: 14.1 µM [inhibitor, single point]"
CCOC(=O)/C=C/S(=O)(=O)c1ccc(NC(C)=O)cc1,,"inconclusive: 10 µM [inhibitor, partial curve, poor fit]"
O=C(OCc1nnc(-c2ccc(Br)cc2)o1)c1ccco1,,"inconclusive: 0.501 µM [inhibitor, partial curve, poor fit]"
CC(=O)Oc1cc2c3c(c1)/C(=C1/SC(=S)NC1=O)C(=O)N3C(C)(C)C=C2C,,"inconclusive: 10 µM [inhibitor, partial curve]"
Cc1cc(C)c2c3c(oc2n1)C(=O)N(c1cccc(Cl)c1)CC(=O)N3,,"inconclusive: 0.794 µM [inhibitor, full curve]"
COc1ccccc1NC(=O)NC1CCCCCCC1,inactive: 44%,
CCc1oc2ccccc2c1C(=O)CCN1CCCCC1,,"inconclusive: 12.6 µM [inhibitor, single point]"
Cc1ncc(CO)c(/C=N/NC(=O)c2ccc(O)cc2)c1O,inactive: -0.728%,
Cc1cccc(NC(=S)N(Cc2cccs2)Cc2cc3cc(C)ccc3[nH]c2=O)c1,inactive: 2.14%,
Cc1noc(-c2ccc(-c3noc(-c4ccccc4)n3)cc2)n1,,"inconclusive: 0.141 µM [inhibitor, full curve, poor fit]"
Cc1ccc(SC[C@H](c2ccccc2)N2CCN(CCc3ccccc3)CCC2=O)cc1,,"inconclusive: 22.4 µM [inhibitor, single point]"
CC(=NNc1nc2ccccc2s1)c1ccncn1,,"inconclusive: 1.41 µM [inhibitor, full curve, poor fit]"
Cc1ccc(NC(=O)COC(=O)c2cc(=O)c3ccccc3o2)cc1F,inactive: -2.43%,
Cc1ccc2c(CN(Cc3ccccc3)Cc3ccccc3)cc(=O)oc2c1,,"inconclusive: 11.2 µM [inhibitor, partial curve, poor fit]"
COc1ccc(S(=O)(=O)NCc2ccccn2)cc1Br,inactive: 12%,
O=C(N/N=C/c1ccc([N+](=O)[O-])s1)c1ccccc1Br,,active: 11.2 µM
Cc1ccccc1CN(C)CC(=O)Nc1ccccc1-c1ccccc1,,"inconclusive: 35.5 µM [inhibitor, single point]"

Compound,"activity, negative = inhibition",Potency
CC1Cc2nc(SCC(=O)Nc3ccc4c(c3)OCCO4)n(C)c(=O)c2S1 (centres undefined),,"inconclusive: 1.12 µM [inhibitor, full curve, poor fit]"
c1ccc(-c2nnc(-c3c[nH]c4ccccc34)nc2-c2ccccc2)cc1,,"inconclusive: 4.47 µM [inhibitor, partial curve, poor fit]"
O=C(C[C@@H]1C/C=C\C[C@H](Cc2ccc(F)cc2)C(=O)OC[C@H]2CCCN2C1=O)N[C@H](CO)Cc1ccccc1,inactive: -0.549%,
CNCc1c(C)nn(-c2ccccc2)c1C,,"inconclusive: 10 µM [inhibitor, partial curve]"
CCCCCCOc1ccc(N2C(=O)CC(N(CCc3ccc(S(N)(=O)=O)cc3)C(C)=O)C2=O)cc1 (centres undefined),,"inconclusive: 1.26 µM [inhibitor, full curve]"
Cc1ccc(NC(=O)CSc2ncnc3ccccc23)cc1S(=O)(=O)N1CCCCCC1,,"inconclusive: 7.08 µM [inhibitor, partial curve, poor fit]"
COc1ccccc1/C=C/CN1CCC(Oc2ccc(C(=O)N3CCCC3)cc2)CC1,inactive: 5.48%,
Cc1c(N=O)c(-c2ccccc2)n(O)[n+]1[O-],inactive: 1.51%,
CCCCOc1ccc(S(=O)(=O)Nc2cccc(-c3ccc(N4CCOCC4)nn3)c2)cc1,,"inconclusive: 35.5 µM [inhibitor, single point]"
CCN1C(=O)CC(C(=O)Nc2ccc(F)cc2)SC1=Nc1ccc2c(c1)OCO2 (centres undefined),,"inconclusive: 0.501 µM [inhibitor, full curve, poor fit]"
CCOc1ccccc1/C=C(/NC(=O)c1ccccc1)C(=O)NC(C)c1ccccc1 (centres undefined),inactive: -27%,
O=C(CSc1nc(=O)n(CCCN2CCOCC2)c2c1CCCC2)Nc1cccc(F)c1,,"inconclusive: 28.2 µM [inhibitor, single point]"
COc1cccc(CN2CCN(Cc3nc4c(s3)CCCC4)CC2CCO)c1 (centres undefined),,"inconclusive: 10 µM [inhibitor, partial curve, poor fit]"
Cc1c(C(=O)NCCN(C)C)oc2c1-c1nn(Cc3ccccc3Cl)cc1CC2,inactive: -18%,
COc1cccc(/C=N/NC(=O)COc2cccc3cccnc23)c1O,,"inconclusive: 6.31 µM [inhibitor, partial curve, poor fit]"
Cc1cccc(N(Cc2ccccc2)C(=O)c2cccc(S(=O)(=O)N3CC(C)OC(C)C3)c2)c1 (centres undefined),,"inconclusive: 35.5 µM [inhibitor, single point]"
Cc1ccc(NC2=CC(=O)C(=O)c3ccccc32)c(C)c1,,"inconclusive: 4.47 µM [inhibitor, full curve, poor fit]"
Cc1cccc(-n2nc([N+](=O)[O-])c(=NCc3cccnc3)n2O)c1,,"inconclusive: 20 µM [inhibitor, single point]"
c1ccc(Nc2scc(-c3ccccc3)[n+]2Cc2ccco2)cc1,,"inconclusive: 12.6 µM [inhibitor, partial curve, poor fit]"
